This is one part of the list.
B1: PhoQ; a variant is named by its letters at X, in order, P23837 (parent)
chain: MKKLLRLFFPLSLRVRFLLATAAVVLVLSLAYGMVALIGYSVSFDKTTFRLLRGESNLFYTLAKWENNKLHVELPENIDKQSPTMTLIYDENGQLLWAQRDVPWLMKMIQPDWLKSNGFHEIEADVNDTSLLLSGDHSIQQQLQEVREDDDDAEMTHSVAVNVYPATSRMPKLTIVVVDTIPVELKSSYMVWSWFIYVLSANLLLVIPLLWVAAWWSLRPIEALAKEVRELEEHNRELLNPATTRELTSLVRNLNRLLKSERERYDKYRTTLTDLTHSLKTPLXXLQXXLRSLRSEKMSVSDAEPVMLEQISRISQQIGYYLHRASMRGGTLLSRELHPVAPLLDNLTSALNKVYQRKGVNISLDISPEISFVGEQNDFVEVMGNVLDNACKYCLEFVEISARQTDEHLYIVVEDDGPGIPLSKREVIFDRGQRVDTLRPGQGVGLAVAREITEQYEGKIVAGESMLGGARMEVIFGRQHSAPKDE

Variants of: B1
Assay: enrichment ratio after two sorts for PhoP signalling (ratio (wild type AVST 3.29)); higher = more functional
Details: with PhoP (E. coli)
PDTD was tested, and the enrichment ratio was ≤ 0.25.
For ERCD, the enrichment ratio was ≤ 0.25.
RDPE was tested, and the enrichment ratio was ≤ 0.25.
In the case of ANTW, the enrichment ratio is reported as ≤ 0.25.
In the case of IILP, the enrichment ratio is reported as ≤ 0.25.
In the case of LVQS, the enrichment ratio is reported as ≤ 0.25.
For IHKS, the enrichment ratio was ≤ 0.25.
With PACD the enrichment ratio was ≤ 0.25.
In the case of KSPD, the enrichment ratio is reported as ≤ 0.25.
For DTAN, the enrichment ratio was ≤ 0.25.
In the case of KGER, the enrichment ratio is reported as ≤ 0.25.
In the case of IIWW, the enrichment ratio is reported as ≤ 0.25.
MVKK was tested, and the enrichment ratio was ≤ 0.25.
In the case of DVPL, the enrichment ratio is reported as ≤ 0.25.
In the case of NSNL, the enrichment ratio is reported as ≤ 0.25.
For ACNL, the enrichment ratio was ≤ 0.25.
With YETY the enrichment ratio was ≤ 0.25.
For YMVE, the enrichment ratio was ≤ 0.25.
With FCPN the enrichment ratio was ≤ 0.25.
In the case of TCWS, the enrichment ratio is reported as 9.23.
In the case of HATH, the enrichment ratio is reported as ≤ 0.25.
AIHV was tested, and the enrichment ratio was ≤ 0.25.
With ECTM the enrichment ratio was ≤ 0.25.
With MDLA the enrichment ratio was ≤ 0.25.
For SMGG, the enrichment ratio was 1.44.
For MSMP, the enrichment ratio was ≤ 0.25.
YELA was tested, and the enrichment ratio was ≤ 0.25.
AQPH was tested, and the enrichment ratio was ≤ 0.25.
In the case of SLFK, the enrichment ratio is reported as ≤ 0.25.
YNPL was tested, and the enrichment ratio was ≤ 0.25.
In the case of DKMR, the enrichment ratio is reported as ≤ 0.25.
With TMNY the enrichment ratio was 8.14.
For NIRS, the enrichment ratio was ≤ 0.25.
With STNT the enrichment ratio was ≤ 0.25.
TLTQ showed an enrichment ratio of 6.49.
With WIWS the enrichment ratio was ≤ 0.25.
With RELP the enrichment ratio was ≤ 0.25.
In the case of KYWY, the enrichment ratio is reported as ≤ 0.25.
For AYKI, the enrichment ratio was ≤ 0.25.
KYWV was tested, and the enrichment ratio was ≤ 0.25.
For VHDL, the enrichment ratio was ≤ 0.25.
For IRCD, the enrichment ratio was ≤ 0.25.
For LDAS, the enrichment ratio was ≤ 0.25.
For GIMH, the enrichment ratio was 10.8.
With FELW the enrichment ratio was ≤ 0.25.
In the case of GTKC, the enrichment ratio is reported as ≤ 0.25.
For PMIW, the enrichment ratio was ≤ 0.25.
With IEQD the enrichment ratio was ≤ 0.25.
For RVDD, the enrichment ratio was ≤ 0.25.
In the case of IVIR, the enrichment ratio is reported as ≤ 0.25.
NTIL was tested, and the enrichment ratio was ≤ 0.25.
For ASWR, the enrichment ratio was ≤ 0.25.
Variant CSTF has an enrichment ratio of 15.8.
In the case of SDQN, the enrichment ratio is reported as ≤ 0.25.
TCPV was tested, and the enrichment ratio was ≤ 0.25.
For AEYN, the enrichment ratio was ≤ 0.25.
In the case of WTGD, the enrichment ratio is reported as ≤ 0.25.
For LTDY, the enrichment ratio was ≤ 0.25.
For WILQ, the enrichment ratio was ≤ 0.25.
With RYNT the enrichment ratio was ≤ 0.25.
For TKCW, the enrichment ratio was ≤ 0.25.
For RWID, the enrichment ratio was ≤ 0.25.
For DGKL, the enrichment ratio was ≤ 0.25.
In the case of LMFY, the enrichment ratio is reported as ≤ 0.25.
For IWEM, the enrichment ratio was ≤ 0.25.
With PPPL the enrichment ratio was ≤ 0.25.
With TLKD the enrichment ratio was ≤ 0.25.
YVRR was tested, and the enrichment ratio was ≤ 0.25.
In the case of YIHW, the enrichment ratio is reported as ≤ 0.25.
With RNWK the enrichment ratio was ≤ 0.25.
With SNGG the enrichment ratio was 7.77.
IFGM was tested, and the enrichment ratio was ≤ 0.25.
For YVFP, the enrichment ratio was ≤ 0.25.
For INRD, the enrichment ratio was ≤ 0.25.
In the case of NLLF, the enrichment ratio is reported as ≤ 0.25.
For DTPV, the enrichment ratio was ≤ 0.25.
QFVS was tested, and the enrichment ratio was ≤ 0.25.
With RQNQ the enrichment ratio was ≤ 0.25.
For KQLT, the enrichment ratio was ≤ 0.25.
For HMSC, the enrichment ratio was ≤ 0.25.
DFKA was tested, and the enrichment ratio was ≤ 0.25.
With AQDF the enrichment ratio was ≤ 0.25.
For ETPY, the enrichment ratio was ≤ 0.25.
For PYAF, the enrichment ratio was ≤ 0.25.
For PTYY, the enrichment ratio was ≤ 0.25.
PNCM was tested, and the enrichment ratio was ≤ 0.25.
In the case of ITNR, the enrichment ratio is reported as ≤ 0.25.
TRPA was tested, and the enrichment ratio was ≤ 0.25.
For VNNS, the enrichment ratio was ≤ 0.25.
With KNHG the enrichment ratio was ≤ 0.25.
For VLIQ, the enrichment ratio was ≤ 0.25.
In the case of KAPI, the enrichment ratio is reported as ≤ 0.25.
With TYHV the enrichment ratio was ≤ 0.25.
For MNNC, the enrichment ratio was ≤ 0.25.
Work on TIRF yielded an enrichment ratio of 0.704.
For NFGQ, the enrichment ratio was ≤ 0.25.
In the case of GDLH, the enrichment ratio is reported as ≤ 0.25.
For RWVC, the enrichment ratio was ≤ 0.25.
Variant VMGS has an enrichment ratio of 1.16.
With HASP the enrichment ratio was ≤ 0.25.
For WVAK, the enrichment ratio was ≤ 0.25.
With EYLC the enrichment ratio was ≤ 0.25.
With NDNP the enrichment ratio was ≤ 0.25.
For SPIV, the enrichment ratio was ≤ 0.25.
With VCHK the enrichment ratio was ≤ 0.25.
VKCM was tested, and the enrichment ratio was ≤ 0.25.
KEHN was tested, and the enrichment ratio was ≤ 0.25.
QSRW was tested, and the enrichment ratio was ≤ 0.25.
For ANFH, the enrichment ratio was ≤ 0.25.
In the case of NQSW, the enrichment ratio is reported as ≤ 0.25.
With PHWQ the enrichment ratio was ≤ 0.25.
YMYA was tested, and the enrichment ratio was ≤ 0.25.
With GFPL the enrichment ratio was ≤ 0.25.
WSYR was tested, and the enrichment ratio was ≤ 0.25.
For LDTN, the enrichment ratio was ≤ 0.25.
ILNR was tested, and the enrichment ratio was ≤ 0.25.
With IAYI the enrichment ratio was ≤ 0.25.
SLQT was tested, and the enrichment ratio was ≤ 0.25.
With VHFD the enrichment ratio was ≤ 0.25.
VVKG was tested, and the enrichment ratio was ≤ 0.25.
With FTQT the enrichment ratio was ≤ 0.25.
WEEF was tested, and the enrichment ratio was ≤ 0.25.
With IPFW the enrichment ratio was ≤ 0.25.
In the case of WGFP, the enrichment ratio is reported as ≤ 0.25.
For VEHY, the enrichment ratio was ≤ 0.25.
Work on AGLR yielded an enrichment ratio of 3.46.
For CLIY, the enrichment ratio was ≤ 0.25.
For ITKE, the enrichment ratio was ≤ 0.25.
With PRSG the enrichment ratio was ≤ 0.25.
QIMW was tested, and the enrichment ratio was ≤ 0.25.
With NSVY the enrichment ratio was ≤ 0.25.
For SDVM, the enrichment ratio was 7.78.
In the case of VCRV, the enrichment ratio is reported as ≤ 0.25.
NWKH was tested, and the enrichment ratio was ≤ 0.25.
For DGGL, the enrichment ratio was ≤ 0.25.
In the case of YPCY, the enrichment ratio is reported as ≤ 0.25.
EAWM was tested, and the enrichment ratio was ≤ 0.25.
With QCDT the enrichment ratio was ≤ 0.25.
With NVGN the enrichment ratio was ≤ 0.25.
With KDIF the enrichment ratio was ≤ 0.25.
With TNVI the enrichment ratio was ≤ 0.25.
With FSEV the enrichment ratio was ≤ 0.25.
QCNG was tested, and the enrichment ratio was ≤ 0.25.
With HWWP the enrichment ratio was ≤ 0.25.
For DRDK, the enrichment ratio was ≤ 0.25.
With HKVL the enrichment ratio was ≤ 0.25.
With EAMK the enrichment ratio was ≤ 0.25.
For LQCV, the enrichment ratio was ≤ 0.25.
For TKPG, the enrichment ratio was ≤ 0.25.
With RFVD the enrichment ratio was ≤ 0.25.
In the case of ISQM, the enrichment ratio is reported as ≤ 0.25.
With HEVH the enrichment ratio was ≤ 0.25.
With VRYL the enrichment ratio was ≤ 0.25.
For RILS, the enrichment ratio was ≤ 0.25.
For RPNQ, the enrichment ratio was ≤ 0.25.
ITYA was tested, and the enrichment ratio was ≤ 0.25.
DQVF was tested, and the enrichment ratio was ≤ 0.25.
Work on TVGN yielded an enrichment ratio of 3.64.
RFRP was tested, and the enrichment ratio was ≤ 0.25.
IWDS was tested, and the enrichment ratio was ≤ 0.25.
In the case of PCWV, the enrichment ratio is reported as ≤ 0.25.
DMCC was tested, and the enrichment ratio was ≤ 0.25.
In the case of ARDF, the enrichment ratio is reported as ≤ 0.25.
EAIV was tested, and the enrichment ratio was ≤ 0.25.
NGTC was tested, and the enrichment ratio was ≤ 0.25.
FPCY was tested, and the enrichment ratio was ≤ 0.25.
With PMMW the enrichment ratio was ≤ 0.25.
For VQDN, the enrichment ratio was ≤ 0.25.
For FHKG, the enrichment ratio was ≤ 0.25.
With YHDM the enrichment ratio was ≤ 0.25.
In the case of WNWV, the enrichment ratio is reported as ≤ 0.25.
In the case of IKSG, the enrichment ratio is reported as ≤ 0.25.
PCTA was tested, and the enrichment ratio was ≤ 0.25.
For EYMA, the enrichment ratio was ≤ 0.25.
With EFCL the enrichment ratio was ≤ 0.25.
With KDPF the enrichment ratio was ≤ 0.25.
In the case of RQAS, the enrichment ratio is reported as ≤ 0.25.
For LYCQ, the enrichment ratio was ≤ 0.25.
In the case of MQPP, the enrichment ratio is reported as ≤ 0.25.
With WRYC the enrichment ratio was ≤ 0.25.
In the case of YSTA, the enrichment ratio is reported as ≤ 0.25.
In the case of WKWF, the enrichment ratio is reported as ≤ 0.25.
In the case of VGYP, the enrichment ratio is reported as ≤ 0.25.
For FHVA, the enrichment ratio was ≤ 0.25.
With AAPA the enrichment ratio was ≤ 0.25.
For VPFG, the enrichment ratio was ≤ 0.25.
In the case of MRLV, the enrichment ratio is reported as ≤ 0.25.
For SYSC, the enrichment ratio was ≤ 0.25.
DYKD was tested, and the enrichment ratio was ≤ 0.25.
For NITS, the enrichment ratio was 4.94.
LSQT was tested, and the enrichment ratio was ≤ 0.25.
For EGYG, the enrichment ratio was ≤ 0.25.
For GAPE, the enrichment ratio was ≤ 0.25.
For PTSS, the enrichment ratio was ≤ 0.25.
In the case of IKHM, the enrichment ratio is reported as ≤ 0.25.

From a collection of fitness landscapes (doi:10.1126/science.1257360)
